Measured values taken from article PMC3642104.
No constants are given. Whether binding was seen depends on the method and setting. For some assays here: Binding seen in cells or lysates may run through a third protein. Some binding calls cover weakened binding; strength is not graded here. Sequences can lack the tags named with a protein.

Chains of the proteins cited; added tags and fusions are not shown.
UniProt P61201: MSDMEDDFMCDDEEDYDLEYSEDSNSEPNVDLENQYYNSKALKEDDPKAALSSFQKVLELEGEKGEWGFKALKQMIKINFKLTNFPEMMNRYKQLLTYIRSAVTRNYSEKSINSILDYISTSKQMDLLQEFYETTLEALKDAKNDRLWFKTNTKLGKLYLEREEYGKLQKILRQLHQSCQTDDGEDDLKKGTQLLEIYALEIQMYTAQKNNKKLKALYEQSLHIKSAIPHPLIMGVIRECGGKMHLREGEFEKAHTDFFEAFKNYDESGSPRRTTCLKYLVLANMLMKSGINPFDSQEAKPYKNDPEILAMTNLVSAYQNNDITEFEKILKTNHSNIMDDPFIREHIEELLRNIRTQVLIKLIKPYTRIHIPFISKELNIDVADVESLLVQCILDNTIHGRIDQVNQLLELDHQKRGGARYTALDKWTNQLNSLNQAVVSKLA
UniProt Q92905: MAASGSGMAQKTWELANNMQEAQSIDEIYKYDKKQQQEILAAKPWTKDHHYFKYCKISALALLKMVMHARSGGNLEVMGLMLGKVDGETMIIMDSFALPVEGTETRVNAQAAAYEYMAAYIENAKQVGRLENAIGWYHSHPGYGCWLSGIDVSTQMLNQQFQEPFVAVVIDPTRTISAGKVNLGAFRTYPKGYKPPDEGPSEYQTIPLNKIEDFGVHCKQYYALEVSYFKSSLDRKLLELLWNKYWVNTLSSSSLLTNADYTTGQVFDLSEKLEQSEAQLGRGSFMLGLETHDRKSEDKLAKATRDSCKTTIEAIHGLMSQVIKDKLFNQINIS
UniProt P63208: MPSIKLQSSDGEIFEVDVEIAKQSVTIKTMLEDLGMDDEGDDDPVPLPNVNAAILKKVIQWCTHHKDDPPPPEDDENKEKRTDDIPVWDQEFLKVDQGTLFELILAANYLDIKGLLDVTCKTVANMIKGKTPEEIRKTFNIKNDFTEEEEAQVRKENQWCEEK

What was measured:
[1] = molecular target: T1, FLAG-tagged Fbxo46 (mouse) (UniProt Q8BG80); test: co-IP; 200 ug CHAPS lysate of transfected 293T cells, FLAG M2 agarose, 1 h at 4 degrees, three washes in CHAPS buffer, western blot for endogenous proteins; in Figure 4B cells with or without 25 uM MG132 for six hours
T1 sequence: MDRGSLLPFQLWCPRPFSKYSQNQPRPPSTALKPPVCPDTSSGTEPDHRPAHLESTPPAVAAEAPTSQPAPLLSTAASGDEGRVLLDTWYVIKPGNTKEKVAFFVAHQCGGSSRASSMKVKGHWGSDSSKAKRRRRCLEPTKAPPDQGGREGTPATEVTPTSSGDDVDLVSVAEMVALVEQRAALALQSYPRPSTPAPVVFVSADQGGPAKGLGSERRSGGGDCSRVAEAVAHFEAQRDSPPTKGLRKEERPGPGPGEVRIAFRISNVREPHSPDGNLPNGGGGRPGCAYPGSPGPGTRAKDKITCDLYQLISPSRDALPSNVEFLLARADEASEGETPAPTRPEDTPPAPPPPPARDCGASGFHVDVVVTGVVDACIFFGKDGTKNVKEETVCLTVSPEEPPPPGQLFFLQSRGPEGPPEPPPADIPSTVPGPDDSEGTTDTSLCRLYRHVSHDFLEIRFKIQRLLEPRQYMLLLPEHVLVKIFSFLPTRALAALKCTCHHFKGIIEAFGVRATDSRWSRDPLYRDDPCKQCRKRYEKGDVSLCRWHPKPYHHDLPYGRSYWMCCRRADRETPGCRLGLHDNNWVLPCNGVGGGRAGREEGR

[2] = molecular target: T2, FLAG-tagged Fbxw4 (mouse) (UniProt Q9JMJ2); test: as above
T2 sequence: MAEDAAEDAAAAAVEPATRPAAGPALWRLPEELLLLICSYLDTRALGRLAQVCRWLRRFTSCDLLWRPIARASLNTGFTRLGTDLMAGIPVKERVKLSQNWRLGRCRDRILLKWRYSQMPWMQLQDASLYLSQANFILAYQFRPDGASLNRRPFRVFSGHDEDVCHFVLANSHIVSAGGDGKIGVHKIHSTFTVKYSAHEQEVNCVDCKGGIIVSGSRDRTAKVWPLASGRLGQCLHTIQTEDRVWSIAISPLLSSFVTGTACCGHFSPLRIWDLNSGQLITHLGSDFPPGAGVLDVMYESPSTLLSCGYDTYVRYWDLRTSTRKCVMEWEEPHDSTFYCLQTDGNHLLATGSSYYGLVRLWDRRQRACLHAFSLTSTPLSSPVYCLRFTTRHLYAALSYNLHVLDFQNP

[3] = molecular target: T2, FLAG-tagged Fbxw4 (mouse); test: SEC; lysates of 293T cells transfected with empty vector or FLAG-Fbxw4 separated on a Superose 6 gel filtration column; every other fraction western blotted for Fbxw4 and SKP1
FLAG-Fbxw4^−fbox (mouse) = molecular target: T3, FLAG-Fbxw4^−fbox (mouse) (UniProt Q9JMJ2); test: co-IP; 200 ug CHAPS lysate of transfected 293T cells, FLAG M2 agarose, 1 h at 4 degrees, three washes in CHAPS buffer, western blot for endogenous proteins; in Figure 4B cells with or without 25 uM MG132 for six hours
T3 sequence: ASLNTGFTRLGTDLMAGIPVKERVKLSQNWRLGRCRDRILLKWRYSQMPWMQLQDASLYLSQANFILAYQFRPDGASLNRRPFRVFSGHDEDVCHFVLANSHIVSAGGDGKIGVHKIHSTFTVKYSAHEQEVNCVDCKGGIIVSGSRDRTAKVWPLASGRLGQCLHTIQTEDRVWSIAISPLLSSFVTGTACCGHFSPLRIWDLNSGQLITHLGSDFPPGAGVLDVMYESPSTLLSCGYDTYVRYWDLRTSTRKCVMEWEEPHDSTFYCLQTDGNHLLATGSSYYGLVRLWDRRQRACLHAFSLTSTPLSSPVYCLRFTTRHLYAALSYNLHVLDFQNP

Substance | binding [1] | binding [2] | binding [3] | binding (FLAG-Fbxw4^−fbox (mouse))
COPS2 (from UniProt P61201 1-443) | no binding | binds |  | 
COPS5 (from UniProt Q92905 1-334) | no binding | binds |  | 
SKP1 (from UniProt P63208 1-163) | binds | binds | binds | no binding
